Experimental data from the supplement of paper PMC4967469.
Lines with a small IC50 respond at low doses; a limit (>, <) means that the fit lies beyond the doses tested. AUC is the area under the same curve over the 256-fold range up to the top dose, as a fraction; it is 1 without any effect and falls as sensitivity rises. An inferred top dose was derived from the fitted curves, not read from the paper.

Compound: Cn1cc(C2=C(c3cn(C4CCN(Cc5ccccn5)CC4)c4ccccc34)C(=O)NC2=O)c2ccccc21 [LY317615]
Assay: Viability of human cancer cell lines after 72 h of drug (GDSC screen)
Details: top dose inferred
Description: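 Human cancer cell lines in 384-well plates, medium with 10% serum, drug for 72 h over a 256-fold dose range (nine 2-fold or five 4-fold steps up to the top dose). Adherent lines were fixed and stained with the nucleic acid dye Syto60, suspension lines read with resazurin; signal relative to control wells, capped at 0 and 100%. One two-parameter sigmoid per drug and line, fitted in a mixed model over all curves with the slope shared within a line.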

Cell Line | AUC | IC50 [µM]
BFTC-905 (bladder, adherent, top dose 20 µM) | 0.906 | > 20
BFTC-909 (kidney, adherent, top dose 20 µM) | 0.974 | > 20
BHT-101 (thyroid, adherent, top dose 20 µM) | 0.98 | > 20
BHY (head and neck, adherent, top dose 20 µM) | 0.814 | 11
BICR10 (head and neck, adherent, top dose 20 µM) | 0.984 | > 20
BICR22 (head and neck, adherent, top dose 20 µM) | 0.979 | > 20
BICR31 (head and neck, adherent, top dose 20 µM) | 0.984 | > 20
BICR78 (head and neck, adherent, top dose 20 µM) | 0.968 | > 20
BL-41 (Burkitt lymphoma, suspension, top dose 20 µM) | 0.779 | 6.24
BPH-1 (prostate, adherent, top dose 20 µM) | 0.333 | 0.405
BT-20 (breast, adherent, top dose 20 µM) | 0.809 | 13.7
BT-474 (breast, adherent, top dose 20 µM) | 0.725 | 5.92
BT-483 (breast, adherent, top dose 20 µM) | 0.678 | 6.14
BV-173 (chronic myeloid leukaemia, suspension, top dose 20 µM) | 0.704 | 4.32
Becker (glioma, adherent, top dose 20 µM) | 0.952 | > 20
BxPC-3 (pancreas, adherent, top dose 20 µM) | 0.687 | 4.47
C2BBe1 (large intestine, adherent, top dose 20 µM) | 0.977 | > 20
C3A (liver, adherent, top dose 20 µM) | 0.988 | > 20
C32 (melanoma, adherent, top dose 20 µM) | 0.971 | > 20
C-4-I (cervix, adherent, top dose 20 µM) | 0.986 | > 20
C-33-A (cervix, adherent, top dose 20 µM) | 0.974 | > 20

Cell Line | AUC | IC50 [µM]
CA46 (Burkitt lymphoma, suspension, top dose 20 µM) | 0.681 | 4.18
CADO-ES1 (Ewing sarcoma, suspension, top dose 20 µM) | 0.78 | 8.4
CAKI-1 (kidney, adherent, top dose 20 µM) | 0.61 | 2.92
CAL-12T (non-small cell lung carcinoma, adherent, top dose 20 µM) | 0.708 | 5.22
CAL-27 (head and neck, adherent, top dose 20 µM) | 0.873 | 19.9
CAL-29 (bladder, adherent, top dose 20 µM) | 0.821 | 12.8
CAL-33 (head and neck, adherent, top dose 20 µM) | 0.967 | > 20
CAL-39 (cervix, adherent, top dose 20 µM) | 0.862 | 18.2
CAL-51 (breast, adherent, top dose 20 µM) | 0.988 | > 20
CAL-54 (kidney, adherent, top dose 20 µM) | 0.985 | > 20
CAL-62 (thyroid, adherent, top dose 20 µM) | 0.982 | > 20
CAL-72 (osteosarcoma, adherent, top dose 20 µM) | 0.984 | > 20
CAL-78 (chondrosarcoma, adherent, top dose 20 µM) | 0.986 | > 20
CAL-85-1 (breast, adherent, top dose 20 µM) | 0.85 | > 20
CAL-120 (breast, adherent, top dose 20 µM) | 0.97 | > 20
CAL-148 (breast, suspension, top dose 20 µM) | 0.99 | > 20
CAMA-1 (breast, adherent, top dose 20 µM) | 0.885 | > 20
CAPAN-1 (pancreas, adherent, top dose 20 µM) | 0.765 | 8.08
CAS-1 (glioma, adherent, top dose 20 µM) | 0.951 | > 20
CCF-STTG1 (glioma, adherent, top dose 20 µM) | 0.979 | > 20
CCK-81 (large intestine, adherent, top dose 20 µM) | 0.42 | 0.764

Cell Line | AUC | IC50 [µM]
CCRF-CEM (lymphoblastic leukaemia, suspension, top dose 20 µM) | 0.883 | 15.6
CESS (acute myeloid leukaemia, suspension, top dose 20 µM) | 0.859 | 12.9
CFPAC-1 (pancreas, adherent, top dose 20 µM) | 0.722 | 5.91
CGTH-W-1 (thyroid, adherent, top dose 20 µM) | 0.901 | > 20
CHL-1 (melanoma, adherent, top dose 20 µM) | 0.969 | > 20
CHP-134 (neuroblastoma, suspension, top dose 20 µM) | 0.957 | > 20
CHP-212 (neuroblastoma, adherent, top dose 20 µM) | 0.386 | 0.623
CHSA0011 (chondrosarcoma, adherent, top dose 20 µM) | 0.958 | > 20
CHSA0108 (chondrosarcoma, adherent, top dose 20 µM) | 0.853 | 19.5
CHSA8926 (chondrosarcoma, adherent, top dose 20 µM) | 0.886 | > 20
CL-11 (large intestine, adherent, top dose 20 µM) | 0.987 | > 20
CMK (acute myeloid leukaemia, suspension, top dose 20 µM) | 0.821 | 9.34
COLO-205 (large intestine, suspension, top dose 20 µM) | 0.73 | 5.58
COLO-320-HSR (large intestine, suspension, top dose 20 µM) | 0.919 | > 20
COLO-668 (small cell lung carcinoma, adherent, top dose 20 µM) | 0.426 | 0.787
COLO-678 (large intestine, semi-adherent, top dose 20 µM) | 0.819 | 16
COLO-679 (melanoma, adherent, top dose 20 µM) | 0.864 | > 20
COLO-680N (oesophagus, adherent, top dose 20 µM) | 0.798 | 11.6
COLO-684 (endometrium, suspension, top dose 20 µM) | 0.807 | 11.8
COLO-783 (melanoma, adherent, top dose 20 µM) | 0.989 | > 20
